The other results are listed elsewhere or left out. Cut-off read from the data, not from the text of the source: active = 3.2 or more and inactive = the rest. Most of these values are background signal.
Biological target: SHP2 C-SH2 domain E139D
Assay: enrichment score (SH2-bound / input frequency) (ratio); bacterial display of known human phosphotyrosine sites (pTyr-Var adds point mutants) read by sequencing; higher = stronger binding; tyrosines were phosphorylated by kinases first
Settings: peptide library: pTyr-Var
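Note: displayed peptides selected on beads carrying the immobilized SH2 domain, with library peptides lacking any tyrosine serving as negative controls.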

| Binder | enrichment score |
| --- | --- |
| GKGGSYSKAEW [HLA-E_Y341] | inactive: 0.676 |
| DDKQPYEKKAE [HMGB1_Y144_A149E] | inactive: 0.463 |
| YSMGCYEISLE [HMGCL_Y198_G203E] | inactive: 0.882 |
| IRRSSYEDSSL [HNF4A_Y144_T139I] | inactive: 0.424 |
| GGGGSYNNFGN [HNRNPA1_Y312_D314N] | inactive: 0.672 |
| NNFGNYNNQSS [HNRNPA1_Y318_D314N] | inactive: 0.636 |
| GGYNNYGYGND [HNRNPH3_Y159] | inactive: 0.674 |
| GGYNNYGYGSD [HNRNPH3_Y159_N163S] | inactive: 0.771 |
| MSSLYYANALF [HOXB7_Y6_T9A] | inactive: 1.98 |
| EGDGVYTLNNE [HP_Y125] | inactive: 0.699 |
| LDYNEYFRYLN [HPRT1_Y198_D201Y] | inactive: 1.12 |
| LDFNEYFRFLN [HPRT1_Y198_D201Y_YF] | inactive: 1.62 |
| ADLLDYIKALN [HPRT1_Y81] | inactive: 1.17 |
| ERWLKYFPNEQ [HS3ST5_Y244_I247N] | inactive: 1.2 |
| MKKQKYGRIIM [HSD17B4_Y143] | active: 3.72 |
| VISNAYVDLAP [HSD17B4_Y602] | inactive: 0.938 |
| GFEVVYMTEPI [HSP90AB1_Y512] | inactive: 0.895 |
| DLLNSYIENEG [HSPA4L_Y600] | inactive: 1.06 |
| DLLNSYTENEG [HSPA4L_Y600_I601T] | inactive: 0.597 |

Biological target: SHP2 C-SH2 domain wild-type
Assay: as above
Settings: peptide library: pTyr-Var

| Binder | enrichment score |
| --- | --- |
| GKGGSYSKAEW [HLA-E_Y341] | inactive: 0.543 |
| DDKQPYEKKAE [HMGB1_Y144_A149E] | inactive: 0.555 |
| YSMGCYEISLE [HMGCL_Y198_G203E] | inactive: 1.13 |
| IRRSSYEDSSL [HNF4A_Y144_T139I] | inactive: 0.419 |
| GGGGSYNNFGN [HNRNPA1_Y312_D314N] | inactive: 0.677 |
| NNFGNYNNQSS [HNRNPA1_Y318_D314N] | inactive: 0.493 |
| GGYNNYGYGND [HNRNPH3_Y159] | inactive: 0.696 |
| GGYNNYGYGSD [HNRNPH3_Y159_N163S] | inactive: 0.66 |
| MSSLYYANALF [HOXB7_Y6_T9A] | inactive: 1.8 |
| EGDGVYTLNNE [HP_Y125] | inactive: 0.518 |
| LDYNEYFRYLN [HPRT1_Y198_D201Y] | inactive: 0.596 |
| LDFNEYFRFLN [HPRT1_Y198_D201Y_YF] | inactive: 1.56 |
| ADLLDYIKALN [HPRT1_Y81] | inactive: 1.23 |
| ERWLKYFPNEQ [HS3ST5_Y244_I247N] | inactive: 1.07 |
| MKKQKYGRIIM [HSD17B4_Y143] | inactive: 2.54 |
| VISNAYVDLAP [HSD17B4_Y602] | inactive: 1.1 |
| GFEVVYMTEPI [HSP90AB1_Y512] | inactive: 0.662 |
| DLLNSYIENEG [HSPA4L_Y600] | inactive: 0.908 |
| DLLNSYTENEG [HSPA4L_Y600_I601T] | inactive: 0.467 |

Biological target: SHP2 N-SH2 domain L43F
Assay: as above
Settings: peptide library: pTyr-Var

| Binder | enrichment score |
| --- | --- |
| GKGGSYSKAEW [HLA-E_Y341] | inactive: 0.511 |
| DDKQPYEKKAE [HMGB1_Y144_A149E] | inactive: 0.416 |
| YSMGCYEISLE [HMGCL_Y198_G203E] | inactive: 0.923 |
| IRRSSYEDSSL [HNF4A_Y144_T139I] | inactive: 0.461 |
| GGGGSYNNFGN [HNRNPA1_Y312_D314N] | inactive: 0.534 |
| NNFGNYNNQSS [HNRNPA1_Y318_D314N] | inactive: 0.478 |
| GGYNNYGYGND [HNRNPH3_Y159] | inactive: 0.74 |
| GGYNNYGYGSD [HNRNPH3_Y159_N163S] | inactive: 0.653 |
| MSSLYYANALF [HOXB7_Y6_T9A] | active: 5.39 |
| EGDGVYTLNNE [HP_Y125] | inactive: 0.521 |
| LDYNEYFRYLN [HPRT1_Y198_D201Y] | inactive: 0.595 |
| LDFNEYFRFLN [HPRT1_Y198_D201Y_YF] | inactive: 1.53 |
| ADLLDYIKALN [HPRT1_Y81] | inactive: 1.19 |
| ERWLKYFPNEQ [HS3ST5_Y244_I247N] | inactive: 0.786 |
| MKKQKYGRIIM [HSD17B4_Y143] | inactive: 2.72 |
| VISNAYVDLAP [HSD17B4_Y602] | inactive: 1.01 |
| GFEVVYMTEPI [HSP90AB1_Y512] | inactive: 0.669 |
| DLLNSYIENEG [HSPA4L_Y600] | inactive: 1.15 |
| DLLNSYTENEG [HSPA4L_Y600_I601T] | inactive: 0.655 |

Biological target: SHP2 N-SH2 domain T42A
Assay: as above
Settings: peptide library: pTyr-Var

| Binder | enrichment score |
| --- | --- |
| GKGGSYSKAEW [HLA-E_Y341] | inactive: 0.528 |
| DDKQPYEKKAE [HMGB1_Y144_A149E] | inactive: 0.534 |
| YSMGCYEISLE [HMGCL_Y198_G203E] | inactive: 0.673 |
| IRRSSYEDSSL [HNF4A_Y144_T139I] | inactive: 0.431 |
| GGGGSYNNFGN [HNRNPA1_Y312_D314N] | inactive: 0.542 |
| NNFGNYNNQSS [HNRNPA1_Y318_D314N] | inactive: 0.651 |
| GGYNNYGYGND [HNRNPH3_Y159] | inactive: 0.702 |
| GGYNNYGYGSD [HNRNPH3_Y159_N163S] | inactive: 0.714 |
| MSSLYYANALF [HOXB7_Y6_T9A] | active: 5.74 |
| EGDGVYTLNNE [HP_Y125] | inactive: 0.36 |
| LDYNEYFRYLN [HPRT1_Y198_D201Y] | inactive: 0.995 |
| LDFNEYFRFLN [HPRT1_Y198_D201Y_YF] | inactive: 1.33 |
| ADLLDYIKALN [HPRT1_Y81] | inactive: 1.09 |
| ERWLKYFPNEQ [HS3ST5_Y244_I247N] | inactive: 0.851 |
| MKKQKYGRIIM [HSD17B4_Y143] | inactive: 2.34 |
| VISNAYVDLAP [HSD17B4_Y602] | active: 3.64 |
| GFEVVYMTEPI [HSP90AB1_Y512] | inactive: 0.893 |
| DLLNSYIENEG [HSPA4L_Y600] | inactive: 0.859 |
| DLLNSYTENEG [HSPA4L_Y600_I601T] | inactive: 0.516 |

Biological target: SHP2 N-SH2 domain T52S
Assay: as above
Settings: peptide library: pTyr-Var

| Binder | enrichment score |
| --- | --- |
| GKGGSYSKAEW [HLA-E_Y341] | inactive: 0.59 |
| DDKQPYEKKAE [HMGB1_Y144_A149E] | inactive: 0.42 |
| YSMGCYEISLE [HMGCL_Y198_G203E] | inactive: 0.863 |
| IRRSSYEDSSL [HNF4A_Y144_T139I] | inactive: 0.385 |
| GGGGSYNNFGN [HNRNPA1_Y312_D314N] | inactive: 0.698 |
| NNFGNYNNQSS [HNRNPA1_Y318_D314N] | inactive: 0.575 |
| GGYNNYGYGND [HNRNPH3_Y159] | inactive: 0.685 |
| GGYNNYGYGSD [HNRNPH3_Y159_N163S] | inactive: 0.712 |
| MSSLYYANALF [HOXB7_Y6_T9A] | active: 6.45 |
| EGDGVYTLNNE [HP_Y125] | inactive: 0.461 |
| LDYNEYFRYLN [HPRT1_Y198_D201Y] | inactive: 0.923 |
| LDFNEYFRFLN [HPRT1_Y198_D201Y_YF] | inactive: 1.22 |
| ADLLDYIKALN [HPRT1_Y81] | inactive: 1.07 |
| ERWLKYFPNEQ [HS3ST5_Y244_I247N] | inactive: 0.931 |
| MKKQKYGRIIM [HSD17B4_Y143] | inactive: 2.93 |
| VISNAYVDLAP [HSD17B4_Y602] | inactive: 1.04 |
| GFEVVYMTEPI [HSP90AB1_Y512] | inactive: 0.709 |
| DLLNSYIENEG [HSPA4L_Y600] | inactive: 0.79 |
| DLLNSYTENEG [HSPA4L_Y600_I601T] | inactive: 0.549 |

Biological target: SHP2 N-SH2 domain wild-type
Assay: as above
Settings: peptide library: pTyr-Var

| Binder | enrichment score |
| --- | --- |
| GKGGSYSKAEW [HLA-E_Y341] | inactive: 0.61 |
| DDKQPYEKKAE [HMGB1_Y144_A149E] | inactive: 0.504 |
| YSMGCYEISLE [HMGCL_Y198_G203E] | inactive: 1.02 |
| IRRSSYEDSSL [HNF4A_Y144_T139I] | inactive: 0.468 |
| GGGGSYNNFGN [HNRNPA1_Y312_D314N] | inactive: 0.607 |
| NNFGNYNNQSS [HNRNPA1_Y318_D314N] | inactive: 0.579 |
| GGYNNYGYGND [HNRNPH3_Y159] | inactive: 0.756 |
| GGYNNYGYGSD [HNRNPH3_Y159_N163S] | inactive: 1.03 |
| MSSLYYANALF [HOXB7_Y6_T9A] | inactive: 2.28 |
| EGDGVYTLNNE [HP_Y125] | inactive: 0.742 |
| LDYNEYFRYLN [HPRT1_Y198_D201Y] | inactive: 0.79 |
| LDFNEYFRFLN [HPRT1_Y198_D201Y_YF] | inactive: 1.72 |
| ADLLDYIKALN [HPRT1_Y81] | inactive: 1.24 |
| ERWLKYFPNEQ [HS3ST5_Y244_I247N] | inactive: 0.872 |
| MKKQKYGRIIM [HSD17B4_Y143] | inactive: 2.32 |
| VISNAYVDLAP [HSD17B4_Y602] | inactive: 0.869 |
| GFEVVYMTEPI [HSP90AB1_Y512] | inactive: 0.703 |
| DLLNSYIENEG [HSPA4L_Y600] | inactive: 1.08 |
| DLLNSYTENEG [HSPA4L_Y600_I601T] | inactive: 0.546 |

From the supplement of paper PMC10369915
